Measured values from paper PMC4336329 (PLoS ONE, 2015).
The whole screen tested about 310,000 compounds, of which about 2,200 (0.71%) showed an effect of 50% or more. The effect is printed as a negative number. The list shows a part of the results.

The molecules below were run against human ether-à-go-go-related gene (hERG) potassium channel (human, UniProt Q12809) (assay: primary screen, population patch clamp on CHO cells stably expressing hERG).
Chain of human ether-à-go-go-related gene (hERG) potassium channel (Q12809 whole entry, looked up): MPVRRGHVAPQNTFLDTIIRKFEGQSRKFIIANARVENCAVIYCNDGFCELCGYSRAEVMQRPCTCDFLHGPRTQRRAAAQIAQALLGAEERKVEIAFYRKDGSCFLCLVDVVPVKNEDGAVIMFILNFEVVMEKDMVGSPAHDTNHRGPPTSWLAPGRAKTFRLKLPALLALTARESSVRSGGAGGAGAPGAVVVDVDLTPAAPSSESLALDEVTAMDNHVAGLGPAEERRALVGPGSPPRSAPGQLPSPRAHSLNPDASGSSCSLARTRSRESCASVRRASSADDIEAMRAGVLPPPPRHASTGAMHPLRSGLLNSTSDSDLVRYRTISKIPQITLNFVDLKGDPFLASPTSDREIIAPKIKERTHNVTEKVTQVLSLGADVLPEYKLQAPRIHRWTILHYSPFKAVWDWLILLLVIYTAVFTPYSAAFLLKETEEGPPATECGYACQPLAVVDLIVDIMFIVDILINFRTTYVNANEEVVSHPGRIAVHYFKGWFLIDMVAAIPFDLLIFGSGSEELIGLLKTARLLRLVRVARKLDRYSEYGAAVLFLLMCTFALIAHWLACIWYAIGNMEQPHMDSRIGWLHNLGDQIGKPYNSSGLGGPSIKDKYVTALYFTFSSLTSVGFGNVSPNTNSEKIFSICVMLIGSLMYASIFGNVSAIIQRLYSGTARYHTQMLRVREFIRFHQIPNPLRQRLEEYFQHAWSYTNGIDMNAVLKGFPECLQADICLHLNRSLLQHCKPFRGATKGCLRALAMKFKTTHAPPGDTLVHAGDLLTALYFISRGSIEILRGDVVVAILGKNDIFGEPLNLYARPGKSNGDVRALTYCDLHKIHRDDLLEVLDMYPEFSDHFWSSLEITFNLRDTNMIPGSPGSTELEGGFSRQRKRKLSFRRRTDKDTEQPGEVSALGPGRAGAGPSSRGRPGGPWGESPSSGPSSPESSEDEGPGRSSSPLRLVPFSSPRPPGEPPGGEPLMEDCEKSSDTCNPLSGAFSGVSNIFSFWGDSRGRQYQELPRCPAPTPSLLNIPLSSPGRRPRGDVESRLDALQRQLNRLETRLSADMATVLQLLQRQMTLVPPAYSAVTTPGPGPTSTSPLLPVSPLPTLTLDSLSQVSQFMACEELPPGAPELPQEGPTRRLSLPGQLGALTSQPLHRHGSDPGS
`COc1ccc(C(=O)N2N=C(c3cccs3)CC2c2ccccc2O)cc1` (stereo not shown) was tested, and the “hERG current change (%, negative = inhibition) at 1uM” value was 7.77%. In the case of `COc1ccc(C2C(C#N)=C(N)N(Nc3ccccc3)C3=C2C(=O)CC(C)(C)C3)cc1C` (stereo not shown), the “hERG current change (%, negative = inhibition) at 1uM” value is reported as 11.4%. For `CCCC(=O)N1CCN(S(=O)(=O)c2cc(Cl)ccc2OC)CC1`, the “hERG current change (%, negative = inhibition) at 1uM” value was 14.1%. `CC(C)(C)C(=O)N1CCN(c2ccnc3cc(Cl)ccc23)CC1` was tested, and the “hERG current change (%, negative = inhibition) at 1uM” value was -55.8%. With `Cc1c(Cl)c([N+](=O)[O-])nn1CCCC(=O)N(Cc1ccccc1)Cc1ccccc1` the “hERG current change (%, negative = inhibition) at 1uM” value was -0.459%. With `O=C(NCC1CCCN(C(=O)Cc2ccccc2Cl)C1)c1ccc(F)cc1` (stereo not shown) the “hERG current change (%, negative = inhibition) at 1uM” value was 7.72%. With `CC[C@H](C)[C@H](NC(N)=O)C(=O)Nc1ccc2c(c1)OCO2` the “hERG current change (%, negative = inhibition) at 1uM” value was 16.9%. For `COc1ccc(S(=O)(=O)NCCC(=O)NCc2cccs2)cc1`, the “hERG current change (%, negative = inhibition) at 1uM” value was 1.11%. In the case of `Cc1c(OCC(=O)N2CCN(c3ccccc3)CC2)ccc2c3c(c(=O)oc12)CCCC3`, the “hERG current change (%, negative = inhibition) at 1uM” value is reported as 9.34%. With `O=C(CSc1nc2c(c(=O)[nH]1)CCC2)Nc1ccc(F)cc1` the “hERG current change (%, negative = inhibition) at 1uM” value was 20.5%. With `Clc1ccc2nnc(Cl)n2n1` the “hERG current change (%, negative = inhibition) at 1uM” value was 19.2%. For `Cc1c(NC(=O)Nc2ccc(C(C)(C)C)cc2)c(=O)n(-c2ccccc2)n1C`, the “hERG current change (%, negative = inhibition) at 1uM” value was 24.9%. In the case of `NC(=O)C1CCN(c2nc(C3CC3)nc3c2nnn3Cc2ccccc2)CC1`, the “hERG current change (%, negative = inhibition) at 1uM” value is reported as -12.3%. With `COc1ccc(-n2nc3c(N4CCC(C(=O)N5CCC(C)CC5)CC4)nnc(C)c3c2C)cc1` the “hERG current change (%, negative = inhibition) at 1uM” value was -11.6%. With `CC(=O)Nc1ccc(OCCC[n+]2ccccc2)cc1.[Cl-]` the “hERG current change (%, negative = inhibition) at 1uM” value was 14.5%. `CCCCC(CC)C(=O)Nc1cc(C(=O)NCCC)ccc1N1CCC2(CC1)CC(c1cccc(Br)c1)=NO2` (stereo not shown) was tested, and the “hERG current change (%, negative = inhibition) at 1uM” value was 6.87%. `Cn1c(Oc2ccc(Cl)cc2)c(C=O)c2ccccc21` was tested, and the “hERG current change (%, negative = inhibition) at 1uM” value was -5.47%. In the case of `CCc1nnc(NC(=O)CC(=O)Nc2ccccc2C(=O)O)s1`, the “hERG current change (%, negative = inhibition) at 1uM” value is reported as 0.688%. `COc1ccc(CCNC(=O)CSc2nnc(-c3ccco3)c(-c3ccco3)n2)cc1OC` was tested, and the “hERG current change (%, negative = inhibition) at 1uM” value was 13.7%. `O=C(Nc1ccc(Cl)cc1)N1CC2CC(C1)c1cccc(=O)n1C2` (stereo not shown) was tested, and the “hERG current change (%, negative = inhibition) at 1uM” value was 4.86%. For `COc1cccc(C(=O)c2c[nH]c(C(=O)NCc3cccs3)c2)c1`, the “hERG current change (%, negative = inhibition) at 1uM” value was 9.58%. For `Cc1ccccc1NC(=O)C(=O)Nc1ccccc1C`, the “hERG current change (%, negative = inhibition) at 1uM” value was 11.6%. For `CCOC(=O)C1CCN(Cc2cccc(Oc3ccc(Cl)cc3)c2)CC1`, the “hERG current change (%, negative = inhibition) at 1uM” value was 6.37%. `CCN1CCN(Cc2nc3ccc([N+](=O)[O-])cc3c(=O)n2-c2ccc(OC)cc2OC)CC1` was tested, and the “hERG current change (%, negative = inhibition) at 1uM” value was -19.3%. In the case of `O=C1/C(=C/c2cccc(F)c2)CSc2sccc21`, the “hERG current change (%, negative = inhibition) at 1uM” value is reported as 4.05%. `CC(=O)OCC(=O)[C@@]12OC3(CCCC3)O[C@@H]1C[C@H]1[C@@H]3CCC4=CC(=O)C=C[C@]4(C)[C@@]3(F)[C@@H](O)C[C@@]12C` was tested, and the “hERG current change (%, negative = inhibition) at 1uM” value was 11.3%. In the case of `O=C(Nc1ccccc1C(F)(F)F)c1cc(-c2ccco2)on1`, the “hERG current change (%, negative = inhibition) at 1uM” value is reported as 10.8%. In the case of `Cc1nn(C)c(C)c1CN(C)C(=O)c1cc2nc(-c3ccco3)cc(C(F)(F)F)n2n1`, the “hERG current change (%, negative = inhibition) at 1uM” value is reported as 2.73%. With `Cc1csc(SCC(=O)Nc2ccccc2[N+](=O)[O-])n1` the “hERG current change (%, negative = inhibition) at 1uM” value was 5.17%. `COc1cccc(NS(=O)(=O)NC(=O)c2c(C)[nH]c3ccccc23)c1` was tested, and the “hERG current change (%, negative = inhibition) at 1uM” value was 17.7%. For `CCOC(=O)N1CCC(NC(=O)c2cc(S(=O)(=O)N(CC)CC)ccc2F)CC1`, the “hERG current change (%, negative = inhibition) at 1uM” value was 6.82%. For `Cc1cc(C(=O)NCc2ccc3c(c2)OCO3)n(-c2ccccc2)n1`, the “hERG current change (%, negative = inhibition) at 1uM” value was -5.53%. For `CC(Oc1ccc(Br)cc1)C(=O)N(C)CC(=O)Nc1ccc(N2CCOCC2)cc1` (stereo not shown), the “hERG current change (%, negative = inhibition) at 1uM” value was 9.85%. With `COc1ccccc1N1CCN(C(=O)c2ccc(S(=O)(=O)N3CCCC3)cc2)CC1` the “hERG current change (%, negative = inhibition) at 1uM” value was 8.12%. `CC1(C)CC(=O)C2=C(C1)N(Cc1cccnc1)C(=O)C2(NC(=O)c1cccnc1)C(F)(F)F` (stereo not shown) was tested, and the “hERG current change (%, negative = inhibition) at 1uM” value was 13.6%. With `CCOc1ccc(NC(=O)CC(Cc2ccc(Cl)cc2)C(=O)O)cc1` (stereo not shown) the “hERG current change (%, negative = inhibition) at 1uM” value was 9.71%. `O=C(NS(=O)(=O)c1ccccc1Cl)c1ccc[nH]1` was tested, and the “hERG current change (%, negative = inhibition) at 1uM” value was 8.8%. With `CCc1c(C)sc(NC(=S)N2CCN(C(=O)C3CCCO3)CC2)c1C(=O)OC` (stereo not shown) the “hERG current change (%, negative = inhibition) at 1uM” value was -3.9%. For `CC(C)Cn1c(SCc2nnc(-c3cccs3)o2)nc(O)cc1=O`, the “hERG current change (%, negative = inhibition) at 1uM” value was 13.7%. With `O=C(CSc1nc2ccccc2nc1SCC(=O)N1CCOCC1)N1CCOCC1` the “hERG current change (%, negative = inhibition) at 1uM” value was 4.89%. For `CC(=O)/C(N=Nc1cccc(C(F)(F)F)c1)=C(\C)O`, the “hERG current change (%, negative = inhibition) at 1uM” value was 14.9%. In the case of `CCCOc1ccc(/C=N/Nc2ccccc2[N+](=O)[O-])c(O)c1`, the “hERG current change (%, negative = inhibition) at 1uM” value is reported as 14%. In the case of `O=C(Nc1cccc(Cl)c1)c1nc[nH]c1C(=O)N1CCc2ccccc2C1`, the “hERG current change (%, negative = inhibition) at 1uM” value is reported as 15.7%. With `Cc1ccc(C)c(-n2nnnc2SCC(=O)NCCC2=CCCCC2)c1` the “hERG current change (%, negative = inhibition) at 1uM” value was 11.6%. `CCOC(=O)N1CCOCCOCCN(C(=O)OCC)CCOCC1` was tested, and the “hERG current change (%, negative = inhibition) at 1uM” value was 6.49%. `COc1ccc(CCNC(=O)C2(c3ccccc3)CC2)cc1` was tested, and the “hERG current change (%, negative = inhibition) at 1uM” value was 14.1%. With `Cc1ccc(-c2nc(C(=O)NC3CCCCCC3)no2)cc1` the “hERG current change (%, negative = inhibition) at 1uM” value was 11.4%. `CCN(CC)S(=O)(=O)c1ccc(N2C(=O)CC2(/C=C/c2ccccc2)C(=O)NC2CCCC2)cc1` (stereo not shown) was tested, and the “hERG current change (%, negative = inhibition) at 1uM” value was 15.5%. With `COc1cc(O)sc1C=Nc1ccc(Cl)cc1Cl` the “hERG current change (%, negative = inhibition) at 1uM” value was 7.61%. In the case of `Cc1ccc(C)c(OCC(=O)Nc2nc3ccc([N+](=O)[O-])cc3s2)c1`, the “hERG current change (%, negative = inhibition) at 1uM” value is reported as -0.416%. `C=C(C)[C@@H]1CC=C(CN2CCN(Cc3ccccc3)CC2)CC1` was tested, and the “hERG current change (%, negative = inhibition) at 1uM” value was 4.74%. `Cc1cccc(C)c1NC(=S)N1CCCN(Cc2ccc(F)cc2)C1` was tested, and the “hERG current change (%, negative = inhibition) at 1uM” value was 11.2%. With `CC1CN(C(=O)c2cc(S(=O)(=O)N3CCCCC3)ccc2Cl)CC(C)O1` (stereo not shown) the “hERG current change (%, negative = inhibition) at 1uM” value was 1.95%. For `CCC(=O)Nc1cccc(NC(=O)c2ccccc2Cl)c1`, the “hERG current change (%, negative = inhibition) at 1uM” value was 7.95%. With `Cc1ccc(S(=O)(=O)NCCC2(C(C)C)CCOC(C)(C)C2)cc1` (stereo not shown) the “hERG current change (%, negative = inhibition) at 1uM” value was 5.74%.
